Assay results from the supplement of paper PMC11417369.
The list shows a part of the results.

system: PfSIP2 AP2 domain 1 (GST-tagged); assay: gcPBM binding intensity (ln(normalized median fluorescence intensity)); higher = stronger DNA binding
Summary of the method: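 Plasmodium falciparum DNA-binding domains carrying a GST tag were expressed in E. coli and applied for 1 h, at about 25 μg on average, to an Agilent 4 × 180k array. The array held primer-extended double-stranded 36-bp intergenic genomic probes together with negative controls, and binding took place in 1× PBS with 1% milk, 0.2 mg/ml BSA, 0.5% salmon testes DNA and 0.03% Triton X-100. An Alexa488 anti-GST antibody detected bound protein, and the array was scanned at 488 nm. Binding intensity is taken as the highest Masliner-normalised natural-log median intensity across replicate spots of either probe orientation.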

Sequence	gcPBM binding intensity (ln)
GTTATATGTTATATATATATATATATATATATATAT [TGCATGCA_negctrl_site428]	8.99
AGCATCATTTTACACACATGCAAATGTAAAATAGGA [TGCATGCA_site460]	6.98
ATAAAGATTAATTCAAGTACACATCAAATACTACAA [XGTACX_site8794]	6.92
TATATATATTTATGTACACACATCAATCATATTAAC [CACACA_site5127]	7.35
TTTACCTCTTCAATGGTGCAATAACTCAAAAATTTG	9.67
TTTTTATTTTATTAGTGTACTTTATATTTAACAATA [XGTACX_site1175]	7.24
AAAAAAAAAAAAAGTACACACATACCTATAAATATA [CACACA_site6937]	7.45
ATAAATAAAATAAAAGCACACAAAATGTAAATAATT [CACACA_site8895]	6.89
TTTATATACATTTTAAATTTTAATGTAACCCATGGG [TGCATGCA_negctrl_site115]	6.81
TATATATTTATAAATGAACACACACCCAATTTGAAT [CACACA_site9113]	7.29
TTTATTTTTATAAGAGCATGCACTGTTTAAAATGGT [TGCATGCA_site628]	9.06
TATTTCTGATTACATACACACATATACAGATATGAC [CACACA_site7490]	7.24
TATATACCTATATACACACACATATATAAATAAATA [CACACA_site7341]	7.1
TTATATATAATATATACACACACATGTATATATAAA [CACACA_site8603]	6.92
TATGTTCCATTTTTTGGTACACATACAATAACTGCT [XGTACX_site2256]	6.97
ATTACATACGAGCACACGTAAAAGTATAATATAAAA [GTGCAC_negctrl_site446]	6.94
TTTGTATTGTGCAGATGTACATTATAATATTGGATT [XGTACX_site5033]	7.25
AACAAATACAAAGAATAGTCATCTGAATGGTGTTAT [GTGCAC_negctrl_site685]	6.79
ATATGTCACTTGTATACACACATATATATTTCAATC [CACACA_site3256]	7.33

Sequence	gcPBM binding intensity (ln)
CTGAAAAAAAAGCTTGCACACGTATTTGCTTTATGT [CACACA_site8427]	7
TTACTTATAAATAAATATACAAAAATGTTATATATA [XGTACX_negctrl_site223]	6.89
TTTTTTGTGTTTGGTACACACGTTATAAAAAATAAA [CACACA_site4866]	7.18
TTTTTTTTTTTTGAAGTGCATTACTTTTTTTGTATT [GTGCAC_site9811]	7.64
GAAAATAGCTAAAATACACACAATTAAAAATTATTA [CACACA_site3506]	6.54
AGGAATATAAAGTGCACACATAATTTGGGGGCAAAA [CACACA_site258]	11.7
TTGTAAAACTTATAATGTACATTTTTTTTTTTTTTT [XGTACX_site5398]	7.27
AGGGACATCTATATCACACACAAAAATTAGTCCCTT [CACACA_site7330]	6.86
TTTTTTTTTTTTTGCACACACATTGAATTATTATTC [CACACA_site197]	7.28
ATAAGAAAATATAAAATGCACACTATAAATTGTATA [CACACA_site143]	7.87
TATATAGAGAGATATGCACACTGTATGAATGCCCCC [CACACA_site5476]	9.53
TATACCTATATACATACATGCAAATATATATTCATA [TGCATGCA_site269]	7.12
ATAAAATAAACATAAATAAACATAAATAAACAAAAA [CACACA_negctrl_site1270]	6.99
AGGTATATATACATATGTACGTATATATATATATAT [XGTACX_site5115]	9.43
TTTAAAAATAAAAGTACACACATAAACATATTACAC [CACACA_site1428]	7.36
TATAATACAACATGCACACATATATATGTGAATCTC [CACACA_site2490]	7.18
TTATATAAATTATTTACACACAAACATTTATACTTT [CACACA_site3449]	7.07
TTTCTAATTTATATCACACACATATTTATATAGTAA [CACACA_site6813]	6.95
GGCGTATGTGTATATACACACCCACGTATATAAATA [CACACA_site7489]	7.08

Sequence	gcPBM binding intensity (ln)
TATTCCCTTCTTCCTTCTGTTTTTGATATTAAAGGG [GTGCAC_negctrl_site270]	6.83
ATACTTTATTCGTTAGCACACAATTCAAGTTGATTC [CACACA_site1123]	6.92
AAGATACCCCAAAATTGTACATATTAAAATAATAAA [XGTACX_site3603]	7.09
AAAAAAAAAAATAAATAAATAAATAAATATATATAT [TGCATGCA_negctrl_site468]	8.33
TATATATACATATACACACATACGTACATACATATA [CACACA_site3585]	7.42
TACATACATATATATACACACATATATAATATATAT [CACACA_site388]	7.4
ATATTCATATATACTTCACACACATTTTATCATTCA [CACACA_site8784]	6.92
ATGAAAGTAAGACATGCATGGAATTTTTTTTATTAG [TGCATGCA_site348]	6.61
GGAATATTTTATGAGTGTACATTTTTTTTTTTTTTT [XGTACX_site2370]	7.31
TTTCTTTTTTTTTTTTTTTCTTTTTTTTTTTTTTTC [CACACA_negctrl_site1025]	6.74
ATAATCCAACTTTGAGTGCGTGGTGTTTTTTTTTTC	7.08
AAGTAAAATAAGTATACACACATAAATATATATATA [CACACA_site685]	8.74
TATAATAATACGTATTGTACTATTAGGTTAATTCGT [XGTACX_site264]	6.96
TTTTCTTGTAAATTACGTACGAATGTGTAGAGAAAT [XGTACX_site1339]	7.65
TCTATAAAGGAATATACACACATATATATATATATA [CACACA_site410]	9.57
ACTTGTAAGAAACACACACACACACCCATATATATA [CACACA_site796]	7.69
ATCCTCTTTACAATATGTACATAAATATATATTTAT [XGTACX_site8001]	7.58
TATATATATAAATACACACACATATATATATATATA [CACACA_site4867]	9.67
